In PubChem BioAssay AID1948 (National Center for Advancing Translational Sciences (NCATS), 2009):
Screen size: about 110,000 compounds; about 20 (0.02%) were called active. This list was built around the results that the source calls inconclusive (neither active nor inactive); the mix of calls is not that of the screen. The call rests on the fitted dose curve; in most records, active means well fitted activation curve with a large enough effect; inconclusive means small, poorly fitted or top-dose-only effect; inactive means no such curve, though single readings can be large or run the other way. Potencies beside an inconclusive call are fits to weak or partial responses and may not hold up.

experiment: qHTS Assay for Compounds that Induce Erasure of Genomic Imprints; conditions: mouse ES Peg3-LacZ reporter, beta-gal luminescence, 40 h; activity change, positive = activation: at 60.7 µM (top of the series) unless noted;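 on activity change, positive = activation: 0% = negative control wells on the plate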
From the text: qHTS Assay for Compounds that Induce Erasure of Genomic Imprints NIH Chemical Genomics Center [NCGC] NIH Molecular Libraries Screening Centers Network [MLSCN] Assay Submitter (PI): JEFFRIES, SEAN, NCGC, University of Cambridge NCGC Peg3 Imprinting Assay Overview Genomic imprinting is the epigenetic process whereby genes are expressed in a parent of origin fashion. […] Unlike some forms of epigenetic silencing that can be overcome by overexpression of transcription factors, genomic imprinting stably represses the expression of one allele despite potentially high levels of expression from the other allele. […] During mouse embryonic day 11.5 imprints are erased in PGCs so that sex specific imprints can be reestablished during gametogenesis. Embryonic germ (EG) cells can be derived from developing PGCs at embryonic day 11.5 and these cells often lack genomic imprints. […] Embryonic stem (ES) cells are a cell type similar to EG cells in phenotype and transcriptional profile, yet ES cells maintain genomic imprints. This similarity between ES and EG cells prompted us to use ES cells to look for factors which could induce imprint erasure. To investigate the stability of genomic imprinting, ES cells were derived from mice with an insertion of a LacZ-Neomycin reporter construct in the Peg3 locus. Peg3 is an imprinted locus where gene expression is restricted to the paternal allele. […] Using LacZ expression we are able to monitor the state of the Peg3 imprint. In order to dissect the mechanisms involved in imprint erasure using a forward chemical genetics approach we developed a cell based phenotype assay using an endogenous silence imprinted locus. This assay utilizes maternally inherited Peg3LacZ-Neo ES cells by monitoring the LacZ expression from the normally silent Peg3 allele. To facilitate screening, high-density feeder-free ES cell culture has been optimized so that ES cells can be grown in 1536 for over four days without feeding or washes. The assay uses a luminescence based read out for LacZ activity and is a homogenous assay optimal for HTS.
NCGC Peg3 Imprinting Assay Protocol Summary ES cell lines were derived from blastocysts taken from Peg3LacZ-Neo x129 matings. Lines were sexed and genotyped for the Peg3LacZ-Neo allele. Female cells carrying the reporter allele were used in this study. Cells were derived on a layer of mouse embryonic fibroblasts and passaged multiple times before switching to feeder free culture. Cells were maintained feeder free on gelatin coated dishes in DMEM/F12 media supplemented with 15% FBS, 2mM L-glutamine, 100 units/ml penicillin, 100ug/ml streptomycin, 0.1mM MEM nonessential amino acids, 1mM sodium pyruvate, 0.1% sodium bicarbonate, 0.1mM 2-Mercaptoethanol, and 400 units/ml leukemia inhibitory factor (LIF) at 37C with 5% CO2. The assay was performed in 1536-well format. A single luminescence read was taken at the end of the assay and the data was normalized by plate to internal negative controls. Maximum efficacy and AC50 values were calculated from dose-response data using the standard Hill equation. 1536 well plates were filled with 0.5ul of 0.1% gelatin per well, spun down and incubated for at least 30 min at 37C. The ES cells were then trypsini Peg3 1536-well assay protocol: (1)Plate 0.5ul/well 0.1% gelatin in white tissue culture treated 1536-well plates, spin and incubate at 37C for at least 30 min. (2)Add 5ul/well (300 cells) of ES cell suspension from freshly trypsinized cells and incubate at 37C, 5% CO2 for 40 hours. (3)Add 5ul/well of freshly prepared BetaGlo solution and incubate at room temperature for 5 minutes. (4)Read luminescence on the ViewLux plate reader. Keywords Genomic Imprinting, Germ Cells, Embryonic Stem Cell, DNA Methylation, Peg3, qHTS, NIH roadmap, NCGC
Potency means the concentration at half of the fitted maximal effect; tags describe the fitted curve by direction and shape.

**Q.** With `CCCC(C)C1(CC)C(=O)N=C(S)NC1=O` (stereo not given) as the molecule, how does the Potency read?
**A.** inconclusive: 1 µM [activator, partial curve]

**Q.** For `CC(C)=CCCC1(C)C=Cc2c(O)c3c(c(CC=C(C)C)c2O1)OC12C(=CC4CC1C(C)(C)OC2(C/C=C(/C)C(=O)O)C4O)C3=O` (stereo not given), which Potency is on record?
**A.** inactive

**Q.** Which Potency does the source give for `O=C(O)COc1cc(Cl)c(Cl)cc1Cl` here?
**A.** inconclusive: 0.794 µM [activator, partial curve]

**Q.** Which Potency does the source give for `CCS(=O)(=O)N1CCCC(C(=O)N2CCC3(CC2)OCCO3)C1` (stereo not given) here?
**A.** inconclusive: 20 µM [activator, single point]

**Q.** With `CSc1nc2ccccc2n1C(=O)Oc1ccccc1` as the molecule, how does the Potency read?
**A.** inconclusive: 12.6 µM [activator, single point]

**Q.** With `Cn1nc(-c2ccc(OCC(=O)N3CCN(Cc4ccccc4)CC3)cc2)c2ccccc2c1=O` as the molecule, how does the Potency read?
**A.** inactive

**Q.** Which Potency does the source give for `CC1=NN(c2ccc(S(=O)(=O)O)cc2C)C(=[OH+])[C@H]1N=Nc1cc(S(=O)(=O)O)ccc1C(=O)O.O.[Cr]` here?
**A.** inconclusive: 1 µM [activator, single point]

**Q.** For `O=C1NC(=O)N(Cc2ccccc2Cl)C(=O)/C1=C/N1CCOCC1`, which Potency is on record?
**A.** inconclusive: 12.6 µM [activator, single point]

**Q.** For `CN(CCC(=O)O)C1=Nc2ccc(Cl)cc2C(c2ccccc2)=[N+]([O-])C1`, which activity change, positive = activation is on record?
**A.** inactive: -11.1% [at 10.9 µM]

**Q.** For `CC(C)CC(=O)C[C@H](O)C(Cl)(Cl)Cl`, which Potency is on record?
**A.** inconclusive: 1.26 µM [activator, single point]

**Q.** For `COc1cc2c3cc1Oc1c(OC)c(OC)cc4c1C(Cc1cccc(c1)Oc1ccc(c(O)c1)CC3N(C)CC2)N(C)CC4` (stereo not given), which Potency is on record?
**A.** inconclusive: 5.01 µM [activator, single point]

**Q.** Which Potency does the source give for `CC(C)CCCC1(C)C=Cc2c(O)c3c(c(CCC(C)C)c2O1)OC12C(CC4CC1C(C)(C)OC2(CCC(C)C(=O)O)C4O)C3=O` (stereo not given) here?
**A.** inconclusive: 5.01 µM [activator, single point]

**Q.** With `C[C@@]12CC(c3ccoc3)OC(=O)C1CC[C@@]1(C)C2C2C=C[C@@]1(O)C(=O)O2` (stereo not given in full) as the molecule, how does the Potency read?
**A.** inconclusive: 1.26 µM [activator, single point]

**Q.** Which Potency does the source give for `CC(C)(c1ccc(OCC2CO2)cc1)c1ccc(OCC2CO2)cc1` (stereo not given) here?
**A.** inactive

**Q.** For `CC(C)[C@H](N)C(=O)OCCOCn1cnc2c(=O)[nH]c(N)nc21`, which Potency is on record?
**A.** inconclusive: 3.16 µM [activator, single point]

**Q.** For `CN(C(=O)Cc1ccccc1)[C@H](CN1CCCC1)c1ccccc1`, which Potency is on record?
**A.** inactive

**Q.** For `CCCn1c(C)c(C(=O)c2cccc3ccccc23)c2ccccc21`, which Potency is on record?
**A.** inactive

**Q.** With `CN1C(=O)CCS(=O)(=O)C1c1ccc(Cl)cc1` (stereo not given) as the molecule, how does the Potency read?
**A.** inconclusive: 12.6 µM [activator, single point]

**Q.** For `CC(N)C(O)c1ccc(O)c(O)c1` (stereo not given), which Potency is on record?
**A.** inconclusive: 3.98 µM [activator, single point]

**Q.** For `c1ccc2c(c1)Sc1ccccc1N2C[C@H]1CN2CCC1CC2`, which Potency is on record?
**A.** inconclusive: 0.158 µM [activator, single point]

**Q.** Which Potency does the source give for `COC[C@]12CN(C=O)C3C4C(OC)C1[C@@]3(C1CC3(O)C(OC)C(O)C4(OC(C)=O)C1C3OC(=O)c1ccccc1)[C@@H](OC)CC2O` (stereo not given in full) here?
**A.** inconclusive: 1.26 µM [activator, partial curve]

**Q.** For `CN1C[C@@H](C(=O)N[C@@]2(C)O[C@]3(O)C4CCCN4C(=O)[C@@H](Cc4ccccc4)N3C2=O)C=C2c3cccc4[nH]cc(c34)C[C@@H]21` (stereo not given in full), which Potency is on record?
**A.** inactive

**Q.** For `COc1ccc(CN2CCN(C(=O)COc3cccc(C)c3)CC2)c(OC)c1`, which Potency is on record?
**A.** inconclusive: 5.01 µM [activator, single point]

**Q.** For `C=Cc1ccc(Cn2c(C)c(CNCCc3cc(OC)ccc3OC)c(C(=O)O)c2C)cc1`, which activity change, positive = activation is on record?
**A.** inconclusive: 32.6% [activator] [at 10.9 µM]

**Q.** With `CCC(CO)NC(=O)[C@@H]1C=C2c3cccc4[nH]cc(c34)C[C@H]2N(C)C1` (stereo not given in full) as the molecule, how does the Potency read?
**A.** inconclusive: 3.98 µM [activator, single point]

**Q.** With `O[C@H]1CCCC[C@H]1N1CCC(c2ccccc2)CC1` as the molecule, how does the Potency read?
**A.** inconclusive: 5.01 µM [activator, partial curve]

**Q.** Which activity change, positive = activation does the source give for `COc1ccc(OC)c(NC(=O)Cn2cc(C(=O)c3ccccc3F)c3ccccc32)c1` here?
**A.** inactive: -6.55% [at 10.9 µM]

**Q.** With `CC(C)CCCC(C)C1CCC2C3=CC[C@@H]4CC(O)CC[C@@]4(C)C3CC[C@]21C` (stereo not given in full) as the molecule, how does the Potency read?
**A.** inconclusive: 0.0316 µM [activator, full curve, poor fit]

**Q.** With `CCCSc1ccc2nc(NC(=O)OC)[nH]c2c1` as the molecule, how does the Potency read?
**A.** inconclusive: 0.398 µM [activator, partial curve, poor fit]

**Q.** Which Potency does the source give for `Cc1nc2ccc(Cl)cn2c1P(=S)(N1CCOCC1)N1CCOCC1` here?
**A.** inconclusive: 6.31 µM [activator, single point]

**Q.** With `CC(C)(OOC(C)(C)c1ccccc1)c1ccccc1` as the molecule, how does the Potency read?
**A.** inconclusive: 12.6 µM [activator, partial curve]

**Q.** With `O=C(O)/C=C\c1ccc[c]([Sb])c1` as the molecule, how does the Potency read?
**A.** inconclusive: 0.501 µM [activator, single point]

**Q.** With `CN1CCc2cc3c(cc2C1O)OCO3` (stereo not given) as the molecule, how does the Potency read?
**A.** inconclusive: 0.0251 µM [activator, full curve, poor fit]

**Q.** Which Potency does the source give for `CN(C)c1ccc(N=O)cc1` here?
**A.** inconclusive: 0.501 µM [activator, single point]

**Q.** With `C[N+]1(C)CCO[C@](O)(c2ccc(-c3ccc([C@]4(O)C[N+](C)(C)CCO4)cc3)cc2)C1` as the molecule, how does the Potency read?
**A.** inconclusive: 7.94 µM [activator, single point]

**Q.** With `CCS(=O)CCSP(=O)(OC)OC` (stereo not given) as the molecule, how does the Potency read?
**A.** inconclusive: 6.31 µM [activator, single point]

**Q.** Which activity change, positive = activation does the source give for `Cc1cc(NC(=O)c2cccn(Cc3cccc(Cl)c3)c2=O)no1` here?
**A.** inconclusive: 79.4% [activator] [at 10.9 µM]

**Q.** Which Potency does the source give for `O=c1c(O)c(-c2ccc(O)c(O)c2)oc2cc(O)cc(O)c12` here?
**A.** inconclusive: 0.251 µM [activator, full curve, poor fit]

**Q.** Which Potency does the source give for `CCOC(=O)c1ccc2[nH]c(-c3ccc(S(=O)(=O)F)cc3)cc(=O)c2c1` here?
**A.** inconclusive: 1.26 µM [activator, single point]

**Q.** Which activity change, positive = activation does the source give for `Cc1ccc(-n2c(/C=C/c3cc(Br)cs3)nc3ccccc3c2=O)cc1C` here?
**A.** inconclusive: 30% [activator] [at 10.9 µM]
